Here are results for 11 compounds from PubChem BioAssay AID228 (DTP/NCI, 2004).

In this assay the test system is BDF1 mice, Friend leukemia sc, tumor weight T/C. As to the kind of experiment: NCI In Vivo Anticancer Drug Screen. Data for tumor model Friend Virus Leukemia (Solid) (subcutaneous) in B6D2F1 (BDF1) mice. The settings on record: endpoint: mean tumor weight, higher = larger tumour. The protocol: The antitumor activity of compounds was measured in mice bearing transplantable tumors. Survival or tumor size were measured and the results are expressed as the measurement made in the treated group (T) divided by the measurement made in the vehicle treated control group (C). The tumor model used in this assay is Friend Virus Leukemia (Solid) (subcutaneous) in B6D2F1 (BDF1) mice

[1] abbreviates: dose: 12.0 mg/kg/injection, schedule: Q01DX011 (ip), vehicle: carboxymethylcellulose (CMC).

Records with an inconclusive call do not appear. Certain results were filed several times, with different values. The other results are left out here. There may be further records. Values that stand side by side repeat one measurement (runs, samples, wells, individuals or studies). Marks in square brackets tell the records apart. Letters count within one entry. Additions like (4×) stand for listed records that agree.

In the case of `C[C@]12C=CC(=O)C=C1CC[C@@H]1[C@@H]2[C@@H](O)C[C@@]2(C)[C@H]1CC[C@]2(O)C(=O)COC(=O)C1CCCC1`, for the setting “dose: 1.0 mg/kg/injection, schedule: Q01DX011 (sc), vehicle: steriod suspending solution”, the T/C is 59 % of control and 91 % of control.
Take `O=C(O)C1(NO)CCCC1`: the T/C (dose: 50.0 mg/kg/injection, schedule: Q01DX011 (ip), vehicle: carboxymethylcellulose (CMC)) was 68 % of control and 96 % of control.
As to `O=C1C=CC(=O)O1` (tested in a mixture with another compound), the T/C (dose: 31.0 mg/kg/injection, schedule: Q#A X022 (ip), vehicle: carboxymethylcellulose (CMC)) is 65 % of control [sample A] and 46 % of control, 67 % of control [sample B] and 86 % of control [sample C]; the T/C (dose: 62.5 mg/kg/injection, schedule: Q#A X022 (ip), vehicle: carboxymethylcellulose (CMC)) was 44 % of control [sample A] and 86 % of control [sample B].
For `S=P(N1CC1)(N1CC1)N1CC1`, the T/C (dose: 1.2 mg/kg/injection, schedule: Q01DX011 (ip), vehicle: carboxymethylcellulose (CMC)) was 34 % of control and 94 % of control.
Consider `S=c1nc[nH]c2c1ncn2C1CCCO1` (stereo not drawn), for which, for the setting “dose: 3.0 mg/kg/injection, schedule: Q01DX011 (ip), vehicle: carboxymethylcellulose (CMC)”, the T/C was 50 % of control and 93 % of control.
In the case of `C[C@H](N)C(=O)N[C@@H]1[C@H]2C(=C(O)C[C@@H](O)[C@@H]2O)C(=O)O[C@@H]1C`, the T/C is, setting by setting: (dose: 400.0 mg/kg/injection, schedule: Q01DX011 (ip), vehicle: carboxymethylcellulose (CMC)) 35 % of control, 87 % of control, 173 % of control; (dose: 800.0 mg/kg/injection, schedule: Q01DX011 (ip), vehicle: carboxymethylcellulose (CMC)) 34 % of control (2×) and 78 % of control.
`Cc1c2ccc3ccccc3c2c[n+]2ccccc12`: under setting [1], the T/C is 41 % of control and 122 % of control.
Regarding `CN(C)c1ccc(C(=C(c2ccc(N(C)C)cc2)c2ccc(N(C)C)cc2)c2ccc(N(C)C)cc2)cc1`, the T/C was 112 % of control, 173 % of control, 189 % of control (dose: 12.0 mg/kg/injection, schedule: Q01DX011 (ip), vehicle: olive oil, sesame oil, peanut oil); 100 % of control and 161 % of control (dose: 18.0 mg/kg/injection, schedule: Q01DX011 (ip), vehicle: olive oil, sesame oil, peanut oil); 89 % of control [sample A] and 70 % of control [sample B] and 96 % of control [sample C] (dose: 25.0 mg/kg/injection, schedule: Q01DX011 (ip), vehicle: olive oil, sesame oil, peanut oil).
In the case of `O=C(O)CCCc1ccc(N(CCCl)CCCl)cc1`, the T/C is 63 % of control and 107 % of control (dose: 3.75 mg/kg/injection, schedule: Q01DX011 (ip), vehicle: carboxymethylcellulose (CMC)); 20 % of control and 48 % of control (dose: 15.0 mg/kg/injection, schedule: Q01DX011 (ip), vehicle: carboxymethylcellulose (CMC)).
With `CNC=O`, the T/C is, setting by setting: (dose: 171.0 mg/kg/injection, schedule: Q01DX011 (ip), vehicle: carboxymethylcellulose (CMC)) 60 % of control and 88 % of control; (dose: 300.0 mg/kg/injection, schedule: Q01DX011 (ip), vehicle: carboxymethylcellulose (CMC)) 30 % of control and 59 % of control.
Take `CC(C)Sc1nc(N)nc2nc[nH]c12`: the T/C (dose: 6.0 mg/kg/injection, schedule: Q01DX011 (ip), vehicle: carboxymethylcellulose (CMC)) is 14 % of control and 55 % of control; the T/C under setting [1] is 12 % of control and 59 % of control.
